Results on 42 sequences are retold here after paper PMC7819943, “Rice protein-binding microarrays: a tool to detect cis-acting elements near promoter regions in rice”.

Some of the results follow.

This experiment addresses T1, OsWOX13 (Oryza sativa, UniProt Q5QMM3 1-267).
T1 sequence: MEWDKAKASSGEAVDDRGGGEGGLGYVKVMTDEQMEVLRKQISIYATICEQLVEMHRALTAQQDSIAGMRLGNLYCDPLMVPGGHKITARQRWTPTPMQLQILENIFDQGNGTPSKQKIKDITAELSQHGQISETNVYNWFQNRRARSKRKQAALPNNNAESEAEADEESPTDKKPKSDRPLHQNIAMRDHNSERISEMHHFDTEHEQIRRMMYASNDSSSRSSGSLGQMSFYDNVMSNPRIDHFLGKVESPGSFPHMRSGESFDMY
As to the kind of experiment: protein-binding microarray (RPBM); PBS, 2% BSA, 51.3 ng/ul salmon testes DNA, 50 uM zinc acetate, 200 nM TF, 25 C, 1 h; high values mean tight binding. As to conditions: protein: recombinant; tags: N-terminal polyhistidine and DsRed monomer fusion (pET32a); label: CyDye5-dUTP incorporated in the synthesized complementary strand; 3' TTTTT single-stranded linker to array surface; dsDNA, one strand shown. In a few lines:
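An Axon 4000B scanner gave the binding signal as per-feature fluorescence intensity in arbitrary units. This followed washing of a custom Agilent array that had been incubated for 1 h at 25 °C with 200 nM protein in PBS, 2% BSA, salmon testes DNA and 50 µM zinc acetate. The proteins were transcription factors fused at the N-terminus to polyhistidine and DsRed, expressed in E. coli BL21-CodonPlus and purified on Ni–NTA.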
In the case of “ATAGCTATATCAATCTAGAATTGGATTAGATATATCTCGACGGAGTCACCTAGTGCAG”, the binding signal is 6040 fluorescence intensity (a.u.).

On to “TAAACTGGTTATCAATTAGTAGTTGCTACTCCGAACAACACGGAGTCACCTAGTGCAG”, for which the binding signal was 8720 fluorescence intensity (a.u.).

As to “TGTGATGAATTGAGCGAACCAGCAGGGCTTCGCCGCTCCCCGGAGTCACCTAGTGCAG”, the binding signal is 5470 fluorescence intensity (a.u.).

As to “ACGGTCTATCCAATCAACAATTATCCTAATTATCCTAACACGGAGTCACCTAGTGCAG”, the binding signal was 13900 fluorescence intensity (a.u.).

With “AGATTAATTAGGCTCAACCATTTTCTCAATGGTTGATGAGCGGAGTCACCTAGTGCAG”, the binding signal is 19100 fluorescence intensity (a.u.).

For “GTCTCTTTGAAATTGAAATTGGGCCTCATTTAGTCTGTTACGGAGTCACCTAGTGCAG”, the binding signal was 3500 fluorescence intensity (a.u.).

Regarding “AAGATTGGATTCGCTGCAATACCATCACTAAACTCGGCTTCGGAGTCACCTAGTGCAG”, the binding signal is 12800 fluorescence intensity (a.u.).

As to “CGAAATTAATCGCGACAATAAATTCAGACAAAACCTTGCTCGGAGTCACCTAGTGCAG”, the binding signal is 24700 fluorescence intensity (a.u.).

As for “AAATAATCAAGATAGAATCTGTTAAGTAATTACATCACTACGGAGTCACCTAGTGCAG”, the binding signal is 7860 fluorescence intensity (a.u.).

For the sequence “AATAATTTACAGGAAAGACTAAAGAATACTCGGAAAACAACGGAGTCACCTAGTGCAG”, the binding signal was 9550 fluorescence intensity (a.u.).

As for “TCAAATTTAATTCAGAGTTACACTAGGTGAACTCACAATACGGAGTCACCTAGTGCAG”, the binding signal was 6640 fluorescence intensity (a.u.).

As to “AGTTCAATTTTCTTATCTAAACAAAATTTGTTCAAAATCACGGAGTCACCTAGTGCAG”, the binding signal was 4710 fluorescence intensity (a.u.).

Turning to “ACCGTAACCTGATTGATAATTTACTGATTTACTCATTGTTCGGAGTCACCTAGTGCAG”, the binding signal is 64700 fluorescence intensity (a.u.).

For “GTTGTCGCACACATAATTATCATCCATCGATCCATCCATACGGAGTCACCTAGTGCAG”, the binding signal was 3600 fluorescence intensity (a.u.).

With “ATGATTTCATGATTCTGCATATCTCGCCCATTAGCTGTCACGGAGTCACCTAGTGCAG”, the binding signal is 3400 fluorescence intensity (a.u.).

For the sequence “GGTACAAAATTGTGATTGATTTCATGTAAATAAGATGTTCCGGAGTCACCTAGTGCAG”, the binding signal is 40300 fluorescence intensity (a.u.).

In the case of “GTAAGATTTAAATTTACACCCACTTATACTCCACTTACATCGGAGTCACCTAGTGCAG”, the binding signal was 17400 fluorescence intensity (a.u.).

With “ATGATTATTTAAAACATTTAATTTATCTATGATCAAGTAGCGGAGTCACCTAGTGCAG”, the binding signal was 35600 fluorescence intensity (a.u.).

“GGAAATTTATTCCATTAAATTGCCTGGCAATTTTAAGCTGCGGAGTCACCTAGTGCAG”: the binding signal is 26300 fluorescence intensity (a.u.).

With “GAAATTGACAACAAAAGTAAACACGCCCGTAGTTTGAAGTCGGAGTCACCTAGTGCAG”, the binding signal is 21200 fluorescence intensity (a.u.).

Consider “ATCTACTGATTTACAACCTCCTTAATTAACAAGCACGGGTCGGAGTCACCTAGTGCAG”, for which the binding signal was 29500 fluorescence intensity (a.u.).

Regarding “TATATATATTTTGTTCCAATCACATTTCACATACCACAGTCGGAGTCACCTAGTGCAG”, the binding signal is 4990 fluorescence intensity (a.u.).

For “AGTATAAAATATAATAGATTGACAGAGAACAAACTAGTAACGGAGTCACCTAGTGCAG”, the binding signal was 17900 fluorescence intensity (a.u.).

“TGTTACATATAATGAAATTAATTTGGTATTGTAGATGTTGCGGAGTCACCTAGTGCAG”: the binding signal was 13600 fluorescence intensity (a.u.).

“CCAAATAGGAAAATTTCCTATAGGATTTAAATCCTATGAACGGAGTCACCTAGTGCAG”: the binding signal was 3750 fluorescence intensity (a.u.).

As to “TTCATTTGATTTAGGATTTAGGATTAAGTTCATTTGAATCCGGAGTCACCTAGTGCAG”, the binding signal was 7200 fluorescence intensity (a.u.).

With “ATTTAAATTAAATAATTAGTAATTCTTTGAGAAGATTAACCGGAGTCACCTAGTGCAG”, the binding signal was 33900 fluorescence intensity (a.u.).

For the sequence “GAAAATATAATTTGTTGTATTCTGTTGTATTGTAGTGACTCGGAGTCACCTAGTGCAG”, the binding signal is 5890 fluorescence intensity (a.u.).

On to “GAGCGAGTACAATAGCAGTCTACAAGTAAGTTGTAATCACCGGAGTCACCTAGTGCAG”, for which the binding signal is 3730 fluorescence intensity (a.u.).

As for “AATTTAAGTAATTATTAATTCTTTTCCTATCATTTGATTCCGGAGTCACCTAGTGCAG”, the binding signal is 4780 fluorescence intensity (a.u.).

On to “ACGGTTTGTTAATTAATTATGTTAACCCCTGTTATATTCACGGAGTCACCTAGTGCAG”, for which the binding signal is 13800 fluorescence intensity (a.u.).

Consider “ACCGCCATCATCAACCAATCAACGTACAGGGCCGGCGCCGCGGAGTCACCTAGTGCAG”, for which the binding signal is 31000 fluorescence intensity (a.u.).

Take “ATAACATTAAATTAATTCTATTACATCTAACATTACATATCGGAGTCACCTAGTGCAG”: the binding signal is 12900 fluorescence intensity (a.u.).

Take “TTTAATTATCTTCTCCTCACTATCCCCTCTCTCTCTCTCCCGGAGTCACCTAGTGCAG”: the binding signal was 24100 fluorescence intensity (a.u.).

Turning to “GAGTGATGAGCAGCTAATAGGTGGACACAATGGCTATTAACGGAGTCACCTAGTGCAG”, the binding signal is 4790 fluorescence intensity (a.u.).

As to “CATAAATTTTCCGTGCCAACTTTGATCATCCGTTTTATTTCGGAGTCACCTAGTGCAG”, the binding signal was 5660 fluorescence intensity (a.u.).

Consider “GATGTGATAATTTGGACCTTCAAGTCCTGTTTGTTCAGTGCGGAGTCACCTAGTGCAG”, for which the binding signal is 5790 fluorescence intensity (a.u.).

In the case of “GCTAATCTGACAAATGAAACAGCAGGAGCACAGCTGCGTTCGGAGTCACCTAGTGCAG”, the binding signal is 3360 fluorescence intensity (a.u.).

Take “TAAATGTCATTTTGTCAATTACTTAACACCGTTAATTTCACGGAGTCACCTAGTGCAG”: the binding signal is 20300 fluorescence intensity (a.u.).

With “TTCAAATTAAGCTGCTTTAGATTATAATCTGAAGCTGGGCCGGAGTCACCTAGTGCAG”, the binding signal is 17800 fluorescence intensity (a.u.).

Take “GTTCAATCACCTACTCCCTCTTCCTCCTACCCAAGTCAGCCGGAGTCACCTAGTGCAG”: the binding signal is 14300 fluorescence intensity (a.u.).

Take “GCCAACTACCCTGTCACTCCTTCATAAATTTCCCTCACCTCGGAGTCACCTAGTGCAG”: the binding signal is 3180 fluorescence intensity (a.u.).
